Data reported in PubChem BioAssay AID493208 (National Center for Advancing Translational Sciences (NCATS), 2011).
Among all 44,000 compounds or so, about 340 (0.77%) were called active. Roughly 5% stayed inconclusive and do not appear here. The call rests on the fitted dose curve; in most records, active means well fitted inhibition curve with a large enough effect; inconclusive means small, poorly fitted or top-dose-only effect; inactive means flat fitted curve, though single readings scatter. The list shows a part of the results.

Test: Acumen qHTS Assay for Inhibitors of the mTORC1 Signaling Pathway in MEF (Tsc2-/-, p53-/-) Cells: Sytravon;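 further: plate controls were DMSO for no effect and rapamycin for full effect; nearly all actives have a fitted effect of over 50% in size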
Conditions: phospho-rpS6 immunofluorescence/PI, 24 h; series mostly up to 38.3 µM; activity change, negative = inhibition: at the top concentration
Outline: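 Tsc2-/-, p53-/- MEFs (empty-vector stable line) in DMEM + 10% FBS were treated with compounds 24 h at 37 degree Celsius, fixed, and immunostained for phospho-rpS6 (Alexa-488) with propidium iodide counterstain. Laser-scanning cytometry gave % positive cells, normalized against 7.5 nM rapamycin and DMSO.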

Activity change, negative = inhibition, inactive:
COc1ccc(S(=O)(=O)Nc2ccc(-c3cn4c(C)csc4n3)cc2)cc1 0%, Cc1ccc(N2CCN(S(=O)(=O)c3cccc4ccccc34)CC2)cc1Cl 4.96%, COc1ccccc1S(=O)(=O)Cc1ccc(C(=O)NCc2ccc(Cl)cc2)o1 -0.879%, O=C(Nc1cccc(C(F)(F)F)c1)c1cc(CN2CCOCC2)on1 -4.18%, CCCCNC(=O)c1ccc2c(c1)ncn2-c1cc(OC)ccc1OC 0%, CCCNc1ccc(-c2nc(-c3ccccn3)no2)cc1[N+](=O)[O-] 8.22%, O=C(Nc1ccccc1F)c1ccc2c(Cl)c3c(nc2c1)CCC3 -0.157%, COC(=O)c1ccc(NC(=O)CCn2cnnn2)cc1 -13%, CCN(CCCNC(=O)c1nn(-c2ccc(OC)cc2)c(=O)c2c1c1ccccc1n2C)c1ccccc1 -1.01%, CCc1cccc(NC(=O)CCNS(=O)(=O)c2cccc3nonc23)c1 0%, COc1ccccc1NC(=O)C1=C(C)Nc2nnnn2C1c1ccc(C(F)(F)F)cc1 (stereo not given) 4.51%, CC(C)(C)CC(=O)NCC(c1ccc2c(c1)OCO2)N1CCN(c2ccccc2)CC1 (stereo not given) -0.112%, O=C1C(c2ccc(F)cc2)N(CCc2ccc(Cl)cc2)C(=O)CN1C1CCCCCC1 (stereo not given) -6.63%, CC(=O)c1ccc(NC(=O)c2cc(-c3ccc(C)s3)nc3ccccc23)cc1 2.51%, CCC(C)NC(=O)Cn1c(=O)n(CCCCCC(=O)NCc2ccccc2Cl)c(=O)c2sccc21 (stereo not given) 12.3%, O=C(NCc1cccc(Br)c1)c1cnn(-c2ccc(F)cc2)c1-n1cccc1 -0.939%, COc1cc(NC(=O)N2c3ccccc3Sc3ccccc32)cc(OC)c1 -2.92%, CCOC(=O)N1CCc2c(sc3c2c(=O)n(CCc2ccccc2)c(=O)n3CC(=O)Nc2ccc(C)cc2)C1 -3.14%, CCOC(=O)c1ccc(NC(=O)CSc2ccc3ccccc3n2)cc1 3.89%, COc1ccccc1C(=O)NCC(c1cccnc1)N1CCc2ccccc2C1 (stereo not given) 8.93%, CCCOC(=O)c1c(NC(=O)C(C)Sc2nc(-c3ccccc3)cc(C(F)(F)F)n2)sc(C(=O)N(C)C)c1C (stereo not given) -13.6%, Cc1cccc(N2CCN(C(=O)CN3C(=O)CSc4c3c(C)nn4-c3ccccc3)CC2)c1C 0.918%, CCOc1ccc(S(=O)(=O)c2c(C(=O)c3ccc(CC)cc3)cnc3ccc(C)cc23)cc1 2.75%, CCc1ccc(NC(=O)[C@H](Cc2ccccc2)N2Cc3ccccc3C2=O)cc1 -1.42%, COc1cc(NC(=O)CCc2c(C)nn(-c3ccc4nnc(C)n4n3)c2C)cc(OC)c1OC -17.2%, CCOc1ccc(N2CC(NC(=O)c3cccs3)CC2=O)cc1 (stereo not given) -0.525%, Cc1ccc(S(=O)(=O)n2nc(-c3ccccc3)nc2NCc2ccc(Cl)cc2)cc1 -3.11%, COc1ccc(C2C(=O)N(C3CCCCCC3)CC(=O)N2Cc2ccc(C)cc2)cc1 (stereo not given) 8.63%, O=C1CC(c2nc(-c3ccc(Cl)cc3)no2)CN1c1ccc2c(c1)OCCO2 (stereo not given) 0.374%, O=C(CSc1nc2c([nH]c3ccccc32)c(=O)n1-c1ccccc1)N1CCc2ccccc21 0.7%, CCOC(=O)c1c(NC(=O)c2cc3ccccc3c(=O)o2)sc2c1CCC(C)C2 (stereo not given) 3.26%, COc1ccc(-n2c(=O)c3ccccc3n(CC(=O)Nc3ccccc3OC)c2=O)cc1 -2.69%, Cc1ccc(SCC(=O)Nc2ccc3oc(-c4ccccc4C)nc3c2)cc1 -2.29%, COc1cc(OC)cc(C(=O)Nc2cc3c(cc2N2CCCC2)n(C)c(=O)c(=O)n3C)c1 8.91%, CCOc1ccc(NC(=O)c2cnc3ccccn3c2=O)cc1 2.42%, Cc1ccc2c(CC(=O)Nc3c(C(=O)c4ccc(C)c(F)c4)oc4ccccc34)coc2c1 2.99%, COc1cc(C2CC(=O)Nc3c2c(C)nn3-c2nncc(-c3ccc(C)cc3)n2)cc(OC)c1OC (stereo not given) 0.42%, COc1ccc(S(=O)(=O)c2c(O)c3ccc(C(=O)NCc4ccc(F)cc4)cc3[nH]c2=O)cc1 3.91%, COc1ccc(NC(=O)CSc2nc(-c3ccc(F)cc3)[nH]c2-c2ccc(C)cc2)cc1OC -4.79%, CC(=O)c1ccc(NC(=O)c2cnn(-c3cccc(F)c3)c2-n2cccc2)cc1 -6.52%, Cc1ccc(CNC(=O)c2cc(C)nc3c2c(C)nn3-c2ccc(C)cc2)cc1 0.631%, CCOc1ccc(CCNC(=O)c2ccc3c(c2)c(C)c(C)n3Cc2ccccc2)cc1OCC -17.9%, O=C(Nc1ccc(Oc2ccccc2)cc1)C1CCN(S(=O)(=O)c2ccc(Cl)cc2)CC1 -9.59%, COc1ccccc1NC(=O)CCCc1nnc2n(C)c(=O)c3sccc3n12 5.57%, O=S(=O)(c1ccc(Cl)cc1)c1nc(-c2ccco2)oc1SCc1ccc(F)cc1 -40%, COc1ccc(CCN2C(=O)c3[nH]nc(-c4ccccc4O)c3C2c2ccc(OC)cc2)cc1 (stereo not given) -18.9%, Cc1ccc2nc3sc(C(=O)NCCCN(C)c4ccccc4)cc3cc2c1 -2.3%, COc1ccccc1CNC(=O)CCC1N=C2c3ccccc3N=C(SCc3ccc(C)cc3C)N2C1=O (stereo not given) -11.7%, Fc1cccc(-n2ncc3c2ncn2nc(Cc4ccccc4)nc32)c1 -8.75%, COc1ccc(NC(=O)CN(c2cc(C)cc(C)c2)S(=O)(=O)c2c(C)noc2C)cc1Cl 1.54%, COc1ccc(-c2nc(SCC(=O)Nc3ccc4c(c3)OCCO4)c(-c3ccc(C)cc3)[nH]2)cc1OC -1.7%, COc1ccc(NC(=O)CSc2ccc3nc(-c4ccccc4)cn3n2)cc1OC -1.1%, CC(C)NC(=O)c1nn(-c2ccccc2F)nc1CO 0.717%, Cc1ccc(CNC(=O)CN2C(=O)COc3ccc(S(=O)(=O)Nc4ccccc4)cc32)cc1 -9.79%, CC(C)(C)OC(=O)N1CCC(c2nnc(SCc3cccc(Cl)c3)o2)CC1 -1.47%, CCc1ccc(NC(=O)CC2C(=O)N(c3cccc(OC)c3)C(=O)N2C2CCCC2)cc1 (stereo not given) -0.478%, Cc1cc(C)cc(NC(=O)CSc2nc(-c3ccccc3)c3cc(F)ccc3n2)c1 -2.33%, Cc1ccc2c(c1)-c1ncc(C(=O)c3ccccc3O)cc1CO2 -14.5%, Cc1ccc(C(=O)NC2=NC(c3ccc(C)cc3)CC(=O)N2)cc1 (stereo not given) -0.274%, Cc1cc(C)cc(NC(=O)c2cc(CN3CCCC3)on2)c1 -26.2%, CCCCCOC(=O)CSc1ncnc2sc3c(c12)CCC(C)C3 (stereo not given) 1.17%, Cc1ccccc1S(=O)(=O)Cc1ccc(C(=O)NC2CCC(C)CC2)o1 (stereo not given) 0.0888%, Cc1nc2nc[nH]n2c(=O)c1CCC(=O)Nc1ccc(F)cc1 -0.386%, Cc1ccc(CNC(=O)C2CCN(S(=O)(=O)c3ccc4[nH]c(=O)ccc4c3)CC2)cc1 -2.4%, CCC(C)NC(=O)CSc1nc2cc3c(cc2c(=O)n1CCCCCC(=O)NCc1ccc2c(c1)OCO2)OCO3 (stereo not given) -0.786%, Cc1cc(-c2ccc(C)c(S(=O)(=O)NC3CCCCC3)c2)on1 -3.81%, CC1(C)C(=O)N(CC(=O)Nc2cccc(F)c2)c2ccc(S(=O)(=O)N3CCCCC3)cc21 -3.63%, Cc1nn(-c2ccccc2)c2c1N(CC(=O)N1CCN(c3ccc(F)cc3)CC1)C(=O)CS2 0%, O=C(Cn1c(=O)n(Cc2cccs2)c(=O)c2cccnc21)Nc1ccc(F)cc1 -6.25%, COc1cccc2cc(C(=O)Nc3ccc(F)c(F)c3)c(=O)oc12 -1.58%, Cc1ccc(Cl)cc1-n1c(=O)c2sc3ccccc3c2n(Cc2ccccc2)c1=O -0.0012%, CCCCCSc1nnc(-c2ccc(Br)cc2)o1 -3.17%, CCOc1cc(-c2nnc(SCC(=O)NC3CCCC3)nc2-c2ccc(OC)c(OCC)c2)ccc1OC 0.0507%, CC(C)CCN1C(=O)c2ccccc2CC1(C)C(=O)NC1CCC(C)CC1 (stereo not given) -0.631%, O=C(CSc1nccn1C1CCCC1)Nc1ccc(C(F)(F)F)cc1 -5.21%, CC(C)c1ccc(-c2nc(C(N)=O)c3c(n2)n(-c2ccc4c(c2)OCO4)c(=O)n3C)cc1 -9.76%, CCOc1ccc(NC(=O)Cn2cc(S(=O)(=O)NC)c(S(=O)(=O)NC)c2)cc1 -9.12%, COc1ccc(NC(=O)C2CCN(S(=O)(=O)c3ccc4[nH]c5c(c4c3)CCCCC5)CC2)cc1 9.17%, O=C(Nc1cccc(F)c1)[C@H](CSCc1ccccc1)N1Cc2ccccc2C1=O -5.4%, CCCCOc1cccc(C(=O)Nc2cccc(-c3nc4ncccc4o3)c2C)c1 11.1%, CCOC(=O)C1=C(C)NC(=O)NC1c1cn(-c2ccccc2)nc1-c1ccc(OCC)cc1 (stereo not given) 3.12%, Cc1ccc(NC(=O)C2CCCN(c3ncnc4onc(-c5ccc(F)cc5)c34)C2)c(Cl)c1 (stereo not given) 1.39%, CCC(C)NC(=O)Cn1ccc2cc(S(=O)(=O)N3CCCCC3)ccc21 (stereo not given) 1.09%, CSc1ncc(C(=O)N2CCN(c3cc(C)ccc3C)CC2)c(C)n1 -1.71%, Cc1cccc(N2CCN(C(=O)CN3C(=O)COc4ccc(S(=O)(=O)N5CCCCCC5)cc43)CC2)c1C -15.2%, Cc1oc(-c2ccc(C(=O)NCc3ccc(Cl)cc3)cc2)nc1CS(=O)(=O)c1ccccc1 -4.76%, CCn1c(=N)c(C(=O)NCc2ccccc2)cc2c(=O)n3cc(C)ccc3nc21 6%, CCCCNC(=O)C(Cc1ccccc1)NS(=O)(=O)c1ccc2c(c1)c(=O)n(C)c(=O)n2C (stereo not given) -3.58%, CCC1CN(C(=O)NCc2ccc(C)cc2)c2ccccc2O1 (stereo not given) -21.5%, CC(C)c1ccc(N2C(=O)CS(=O)(=O)C23C(=O)N(Cc2cccc(F)c2)c2ccccc23)cc1 (stereo not given) 1.43%, CCOc1ccc(-c2ncnn2-c2sc3c(c2C#N)CCCCC3)cc1 9.61%, Cc1cc(C)c(OCC(=O)N(Cc2ccco2)Cc2ccco2)c(C)c1 -0.462%, CCOC(=O)c1ccc(NS(=O)(=O)c2ccc(-c3cc(C)no3)cc2)cc1 -12.8%, Cc1ccc(C)c(NC(=O)c2cc(S(=O)(=O)N3CCCc4ccccc43)ccc2F)c1 8.46%, COc1ccc(Cn2ccc3nc(C)c(C(=O)Nc4cc(C)cc(C)c4)cc3c2=O)cc1 0.0558%
